Results taken from publication PMC7363125.
Changes are numbered by the printed parent chain. These are yes or no findings as the source states them, for the method shown. In cells and extracts the contact can be indirect. Some results given as binding are weak or reduced against the parent protein; the word gives no strength. Tags and fused reporters may be left off the sequences shown.

Experiments:
Test in all cases: pull-down; GST-PDZD11 baits (full-length, truncated, 1-30, mutants; E. coli) on GSH-Sepharose beads, incubated 1 h at 4 °C with insect cell lysate holding full-length PLEKHA7-His; immunoblot with anti-His; only the target purified
[1] = biological target: T1, GST-PDZD11 N-term 1-30 P16,21,22,26,27A (human) (UniProt Q5EBL8)
T1 sequence: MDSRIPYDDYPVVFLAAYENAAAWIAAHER

[2] = biological target: T2, GST-PDZD11 N-term 1-30 P16,21,22A (human) (UniProt Q5EBL8)
T2 sequence: T1 sequence with A26P, A27P

[3] = biological target: T3, GST-PDZD11 full-length P21,22,26,27A (human) (UniProt Q5EBL8)
T3 sequence: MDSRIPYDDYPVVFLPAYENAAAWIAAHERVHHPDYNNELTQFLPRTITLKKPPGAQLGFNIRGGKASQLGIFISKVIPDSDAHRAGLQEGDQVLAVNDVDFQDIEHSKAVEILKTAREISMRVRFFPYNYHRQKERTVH

[4] = biological target: T4, GST-PDZD11 N-term 1-30, WT (human) (UniProt Q5EBL8)
T4 sequence: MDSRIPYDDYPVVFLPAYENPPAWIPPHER

[5] = biological target: T5, GST-PDZD11 N-term 1-30 P16A (human) (UniProt Q5EBL8)
T5 sequence: T4 sequence with P16A

[6] = biological target: T6, GST-PDZD11 full-length P16,21,22A (human) (UniProt Q5EBL8)
T6 sequence: T3 sequence with P16A, A26P, A27P

[7] = biological target: T7, GST-PDZD11 Δ4 (deletion of 4 N-terminal residues of full-length PDZD11) (human) (UniProt Q5EBL8)
T7 sequence: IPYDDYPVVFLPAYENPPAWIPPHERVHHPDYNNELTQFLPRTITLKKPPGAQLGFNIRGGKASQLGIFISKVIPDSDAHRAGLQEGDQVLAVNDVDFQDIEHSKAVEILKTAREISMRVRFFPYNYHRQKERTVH

[8] = biological target: T8, GST-PDZD11 full-length P16,26,27A (human) (UniProt Q5EBL8)
T8 sequence: T3 sequence with P16A, A21P, A22P

[9] = biological target: T9, GST-PDZD11 full-length P26A + P27A (human) (UniProt Q5EBL8)
T9 sequence: T3 sequence with A21P, A22P

[10] = biological target: T10, GST-PDZD11 full-length (residues 1-140), WT (human) (UniProt Q5EBL8)
T10 sequence: T3 sequence with A21P, A22P, A26P, A27P

[11] = biological target: T11, GST-PDZD11 Δ14 (deletion of 14 N-terminal residues of full-length PDZD11) (human) (UniProt Q5EBL8)
T11 sequence: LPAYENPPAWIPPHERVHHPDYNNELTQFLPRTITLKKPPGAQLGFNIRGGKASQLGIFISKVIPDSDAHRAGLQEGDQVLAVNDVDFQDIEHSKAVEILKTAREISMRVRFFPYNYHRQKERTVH

B1: PLEKHA7-His, full-length (protein, UniProt Q6IQ23 1-1121)
chain: MAAATVGRDTLPEHWSYGVCRDGRVFFINDQLRCTTWLHPRTGEPVNSGHMIRSDLPRGWEEGFTEEGASYFIDHNQQTTAFRHPVTGQFSPENSEFILQEEPNPHMSKQDRNQRPSSMVSETSTAGTASTLEAKPGPKIIKSSSKVHSFGKRDQAIRRNPNVPVVVRGWLHKQDSSGMRLWKRRWFVLADYCLFYYKDSREEAVLGSIPLPSYVISPVAPEDRISRKYSFKAVHTGMRALIYNSSTAGSQAEQSGMRTYYFSADTQEDMNAWVRAMNQAAQVLSRSSLKRDMEKVERQAVPQANHTESCHECGRVGPGHTRDCPHRGHDDIVNFERQEQEGEQYRSQRDPLEGKRDRSKARSPYSPAEEDALFMDLPTGPRGQQAQPQRAEKNGMLPASYGPGEQNGTGGYQRAFPPRTNPEKHSQRKSNLAQVEHWARAQKGDSRSLPLDQTLPRQGPGQSLSFPENYQTLPKSTRHPSGGSSPPPRNLPSDYKYAQDRASHLKMSSEERRAHRDGTVWQLYEWQQRQQFRHGSPTAPICLGSPEFTDQGRSRSMLEVPRSISVPPSPSDIPPPGPPRVFPPRRPHTPAERVTVKPPDQRRSVDISLGDSPRRARGHAVKNSSHVDRRSMPSMGYMTHTVSAPSLHGKSADDTYLQLKKDLEYLDLKMTGRDLLKDRSLKPVKIAESDTDVKLSIFCEQDRVLQDLEDKIRALKENKDQLESVLEVLHRQMEQYRDQPQHLEKIAYQQKLLQEDLVHIRAELSRESTEMENAWNEYLKLENDVEQLKQTLQEQHRRAFFFQEKSQIQKDLWRIEDVTAGLSANKENFRILVESVKNPERKTVPLFPHPPVPSLSTSESKPPPQPSPPTSPVRTPLEVRLFPQLQTYVPYRPHPPQLRKVTSPLQSPTKAKPKVEDEAPPRPPLPELYSPEDQPPAVPPLPREATIIRHTSVRGLKRQSDERKRDRELGQCVNGDSRVELRSYVSEPELATLSGDMAQPSLGLVGPESRYQTLPGRGLSGSTSRLQQSSTIAPYVTLRRGLNAESSKATFPRPKSALERLYSGDHQRGKMSAEEQLERMKRHQKALVRERKRTLGQGERTGLPSSRYLSRPLPGDLGSVC
binding [1]: no binding
binding [2]: no binding
binding [3]: no binding
binding [4]: binds
binding [5]: binds
binding [6]: no binding
binding [7]: binds
binding [8]: no binding
binding [9]: binds
binding [10]: binds
binding [11]: binds
